Read counts are not given, so values of variants with three or more changes are uncertain.
B1: CPEB3 Ribozyme (parent)
chain: UAACAGGGGGCCACAGCAGAAGCGUUCACGUCGCAGCCCCUGUCAGAUUCUGGUGAAUCUGCGAAUUCUGCUGUAUAUCUC

Variants of: B1
Experiment: self-cleavage, relative activity (ratio to wild type); higher = more cleavage; in vitro, sequencing
Outline: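 CPEB3 self-cleaving ribozyme mutant libraries were made by rounds of error-prone PCR, barcoded, and transcribed in vitro with T7 RNA polymerase for 5 hours at 37°C. Cleavage occurred during transcription and a 15 min DNase I step before EDTA stop. RNAs were reverse transcribed with template switching and Illumina-sequenced, with DNA sequencing mapping barcodes to variants. Relative activity is the variant's cleaved/total read fraction divided by wild type's (minimum 5 reads), averaged across three batches.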

Variant | self-cleavage
U49C G63A U66A | 0.4
U48C U67C U69A | 0.32
U49C A56U U60A | 0.1
A47G U78C U80C | 0.7
U48C U51C A64U U80C | 0.23
U48C A57G U78C | 1.11
A47U U60C U66C | 0
U48A U54C U60A A65C | 0.1
A47G U54C U66A | 0.62
A47G U48C U54C U78G | 0.18
U48C U58A U72A | 0.15
U48C A64C U80C | 0.19
U48A G70A U72C | 0.19
U48C A56U A65G C68A | 0.2
U49C U54A A57G G61U | 0.14
U48C A57G A65G U76A | 0.53
A47G U69A U72C U78C | 0.62
U49A A56G U69C | 0.17
A47U U51C G52C G55U | 0.18
A47G U48C U51A A77G | 0.13
U49A U76C A77U | 0.99

Variant | self-cleavage
A47G G63C U72C | 1.09
A47G G63A A65U | 0.49
A47G U60C U76C | 0.34
U48G A65G U78C U80A | 0.07
U49A U74A U78C | 1.03
U49C G52A U54C U72C U78C | 0.55
U49A A64U U66C U80G | 0.15
A47U A64G U74A | 0.75
U49C U51A G61C U72C | 0.27
U49A U51C U76A | 0.38
U49A A64C U72C | 0.17
U48C A64G U66C | 0.32
A47G U49C U80A | 0.43
U49A A57G U69C A77G | 0.16
U49C A75U U80C | 0.45
U48C U54C U58C U74A | 0.17
U48A U54C C59U U66C | 0.05
U48A A65G A77U | 0.1
U49C U51C U76C U80A | 0.08
U48C U78C C79U | 0.77
U48A A56G U60A C62G U80C | 0.07

Variant | self-cleavage
U48C G52A U60C U67C A75U U78A | 0.2
U49A U51A U80A | 0.45
U48C A65U U78C | 0.18
A47U U58A A65G | 0.51
U48C A56U C62U | 0.12
U49A U60A A64G | 0.2
U48C A56U U80C | 0.52
A47G U54C G63U U67A | 0.49
U48C A64G U78A | 0.14
U49C A64G U67C U69A | 0.15
U48C A56G A57U | 0.32
U48A U49C A65G | 0.08
U49C A65G U72C | 0.29
U49C A65G U72A | 0.1
U49C A56G U80C | 1.07
U48C U54C A56U U66C U76A | 0.08
A47G U49A U54A U58C A65U | 0.17
A47G U49G U80C | 0.17
U48G U51C A57G A75U U80C | 0.25
A47U G63A U69C | 0.22
U48C A57G A77G | 1.21

Variant | self-cleavage
A47U C59U U66C U78C | 0.11
U48A A64G U80C | 0.26
U48C A56C A64G | 0.14
U49A U69C U76A | 0.47
A47U U58A A65C U80C C81U | 0.11
U48C U58A C59G U67A U76A | 0.14
U48C U49A U51A A64U U67C | 0.22
U49A A56G U66C | 0.29
A47G U60C U66A | 0.25
U49A U60C U74A | 0.3
U49C A56G A57U | 0.37
U49A U58A A65C | 0.13
U49A U60C G61A | 0.15
A47G U48C U67A | 0.05
U49C A57U G61A | 0.17
A47G U51C A64U | 0.29
U48A U49C A56U U72C | 0.52
A47U A56U G63A U67A U80C | 0.05
A47G U48C A56G U78C | 0.17
U49C U51A U54A U80A | 0.27
U48A G55A U60C U74C | 0.11

From the RNAGym collection of RNA variant scans (doi:10.1093/nar/gkz1192)
